# Some of the results follow.
# B1: PhoQ; a variant is named by its letters at X, in order, P23837 (parent)
# chain: MKKLLRLFFPLSLRVRFLLATAAVVLVLSLAYGMVALIGYSVSFDKTTFRLLRGESNLFYTLAKWENNKLHVELPENIDKQSPTMTLIYDENGQLLWAQRDVPWLMKMIQPDWLKSNGFHEIEADVNDTSLLLSGDHSIQQQLQEVREDDDDAEMTHSVAVNVYPATSRMPKLTIVVVDTIPVELKSSYMVWSWFIYVLSANLLLVIPLLWVAAWWSLRPIEALAKEVRELEEHNRELLNPATTRELTSLVRNLNRLLKSERERYDKYRTTLTDLTHSLKTPLXXLQXXLRSLRSEKMSVSDAEPVMLEQISRISQQIGYYLHRASMRGGTLLSRELHPVAPLLDNLTSALNKVYQRKGVNISLDISPEISFVGEQNDFVEVMGNVLDNACKYCLEFVEISARQTDEHLYIVVEDDGPGIPLSKREVIFDRGQRVDTLRPGQGVGLAVAREITEQYEGKIVAGESMLGGARMEVIFGRQHSAPKDE
# Variants of: B1
# Experiment: enrichment ratio after two sorts for PhoP signalling (ratio (wild type AVST 3.29)); higher = more functional
# Conditions: with PhoP (E. coli)
row,Variant,enrichment ratio
1,GFMG,≤ 0.25
2,WMVS,≤ 0.25
3,TACK,11.6
4,YDIQ,≤ 0.25
5,MEKP,≤ 0.25
6,SYWP,≤ 0.25
7,MLPS,≤ 0.25
8,VQKE,≤ 0.25
9,MFSR,≤ 0.25
10,WMDD,≤ 0.25
11,YFQD,≤ 0.25
12,DPAC,≤ 0.25
13,VPFD,≤ 0.25
14,PKIP,≤ 0.25
15,FRLI,≤ 0.25
16,KARR,≤ 0.25
17,THMR,≤ 0.25
18,MRET,≤ 0.25
19,PYEC,≤ 0.25
20,QDCP,≤ 0.25
21,NTRA,≤ 0.25
22,IPNV,≤ 0.25
23,RSYN,≤ 0.25
24,KFRD,≤ 0.25
25,MTRG,≤ 0.25

row,Variant,enrichment ratio
1,EQVR,≤ 0.25
2,RTSL,≤ 0.25
3,SLFW,≤ 0.25
4,ACFG,≤ 0.25
5,SGLI,16.2
6,WPAH,≤ 0.25
7,PMHT,≤ 0.25
8,VPEA,≤ 0.25
9,DHIF,≤ 0.25
10,YGLK,≤ 0.25
11,SIVR,1.84
12,DQPN,≤ 0.25
13,VMIS,≤ 0.25
14,SLEL,≤ 0.25
15,VMVR,≤ 0.25
16,KNYP,≤ 0.25
17,GKEV,≤ 0.25
18,GVMC,≤ 0.25
19,RKAH,≤ 0.25
20,WHSG,≤ 0.25
21,SCPV,6.54
22,HFIH,≤ 0.25
23,SMIN,≤ 0.25
24,TRAC,≤ 0.25
25,QGLH,≤ 0.25

row,Variant,enrichment ratio
1,YSAQ,≤ 0.25
2,MSFP,≤ 0.25
3,SWYY,≤ 0.25
4,HWVM,≤ 0.25
5,KMTL,≤ 0.25
6,GHMS,≤ 0.25
7,KYTH,≤ 0.25
8,FDAG,≤ 0.25
9,VKIS,≤ 0.25
10,MYLL,≤ 0.25
11,IWPK,≤ 0.25
12,FQGS,≤ 0.25
13,LKIE,1.65
14,RNFQ,≤ 0.25
15,LFPL,≤ 0.25
16,MYHH,≤ 0.25
17,GNPD,≤ 0.25
18,MTEM,≤ 0.25
19,TYLY,≤ 0.25
20,CFFP,≤ 0.25
21,STTK,≤ 0.25
22,QGLP,≤ 0.25
23,SHEN,≤ 0.25
24,LQVL,≤ 0.25
25,QLCY,≤ 0.25

row,Variant,enrichment ratio
1,LVTS,≤ 0.25
2,HHNQ,≤ 0.25
3,VFQE,≤ 0.25
4,KVWL,≤ 0.25
5,LYHW,≤ 0.25
6,AFNS,≤ 0.25
7,TNIQ,≤ 0.25
8,VYSN,≤ 0.25
9,RIVG,≤ 0.25
10,KQLD,≤ 0.25
11,MEYA,4.82
12,YRSM,≤ 0.25
13,FCHK,≤ 0.25
14,PNCW,≤ 0.25
15,FVWH,≤ 0.25
16,NCYS,≤ 0.25
17,PKND,≤ 0.25
18,YHVG,≤ 0.25
19,RPRL,≤ 0.25
20,HWSH,≤ 0.25
21,LVQW,≤ 0.25
22,WQSR,≤ 0.25
23,SNGV,5.15
24,AEFA,0.58
25,EVDD,≤ 0.25

row,Variant,enrichment ratio
1,RWAM,≤ 0.25
2,SYFD,≤ 0.25
3,KNTM,≤ 0.25
4,DIHP,≤ 0.25
5,EIDP,≤ 0.25
6,HEDD,≤ 0.25
7,SFWP,≤ 0.25
8,LCVP,≤ 0.25
9,QKVE,≤ 0.25
10,TGYT,10.1
11,PDQN,≤ 0.25
12,DGPI,≤ 0.25
13,LICT,≤ 0.25
14,FYNQ,≤ 0.25
15,GARW,≤ 0.25
16,AVGQ,≤ 0.25
17,KMIM,≤ 0.25
18,PGWC,≤ 0.25
19,DYHK,≤ 0.25
20,FVGG,≤ 0.25
21,HCRI,≤ 0.25
22,NNAR,≤ 0.25
23,VSEC,≤ 0.25
24,YTIC,≤ 0.25
25,FIGV,≤ 0.25

row,Variant,enrichment ratio
1,PRAL,≤ 0.25
2,LAMM,14.3
3,QLDV,≤ 0.25
4,RFDG,≤ 0.25
5,SAYK,≤ 0.25
6,SAAL,12.8
7,WETQ,≤ 0.25
8,FERQ,≤ 0.25
9,GFLG,6.69
10,AAMW,2.71
11,QLIH,≤ 0.25
12,FYFV,≤ 0.25
13,MHFV,≤ 0.25
14,TSPW,≤ 0.25
15,YFYC,≤ 0.25
16,MKNG,≤ 0.25
17,HGFY,≤ 0.25
18,KVSP,≤ 0.25
19,KHFR,≤ 0.25
20,PWIN,≤ 0.25
21,GSWI,≤ 0.25
22,RFAI,≤ 0.25
23,MECL,10.6
24,YIDI,≤ 0.25
25,ADPA,≤ 0.25

row,Variant,enrichment ratio
1,PYYI,≤ 0.25
2,RMRC,≤ 0.25
3,QCLS,≤ 0.25
4,SMMY,2.28
5,MLGD,≤ 0.25
6,PGFK,≤ 0.25
7,VNAS,0.424
8,PKFW,≤ 0.25
9,MEGA,≤ 0.25
10,RFDE,≤ 0.25
11,SVWW,≤ 0.25
12,HDLP,≤ 0.25
13,SMMI,5.18
14,FPNR,≤ 0.25
15,WEEM,≤ 0.25
16,QFRC,≤ 0.25
17,FTDD,≤ 0.25
18,DLIT,≤ 0.25
19,IMNW,≤ 0.25
20,EFWC,≤ 0.25
21,DYEQ,≤ 0.25
22,DEHV,≤ 0.25
23,PLIG,≤ 0.25
24,KCTT,≤ 0.25
25,PDGW,≤ 0.25

row,Variant,enrichment ratio
1,EPCE,≤ 0.25
2,WQAQ,≤ 0.25
3,NFMW,≤ 0.25
4,KCWP,≤ 0.25
5,RMNE,≤ 0.25
6,GPAV,≤ 0.25
7,RIHR,≤ 0.25
8,FQTC,≤ 0.25
9,IYHW,≤ 0.25
10,NEIV,≤ 0.25
11,FWGK,≤ 0.25
12,SNEP,≤ 0.25
13,NEAQ,≤ 0.25
14,IKDW,≤ 0.25
15,DKDS,≤ 0.25
16,TIYI,4.29
17,HAFI,≤ 0.25
18,IVRS,≤ 0.25
19,GGYL,≤ 0.25
20,AHWD,≤ 0.25
